Laboratory results from paper PMC4336329 (PLoS ONE, 2015).
Out of some 310,000 compounds screened, about 2,200 (0.71%) showed an effect of 50% or more. The effect is printed as a negative number. Some of the results follow.

What follows are compounds tested against human ether-à-go-go-related gene (hERG) potassium channel (human, UniProt Q12809) (assay: primary screen, population patch clamp on CHO cells stably expressing hERG).
human ether-à-go-go-related gene (hERG) potassium channel, sequence (Q12809 whole entry, looked up): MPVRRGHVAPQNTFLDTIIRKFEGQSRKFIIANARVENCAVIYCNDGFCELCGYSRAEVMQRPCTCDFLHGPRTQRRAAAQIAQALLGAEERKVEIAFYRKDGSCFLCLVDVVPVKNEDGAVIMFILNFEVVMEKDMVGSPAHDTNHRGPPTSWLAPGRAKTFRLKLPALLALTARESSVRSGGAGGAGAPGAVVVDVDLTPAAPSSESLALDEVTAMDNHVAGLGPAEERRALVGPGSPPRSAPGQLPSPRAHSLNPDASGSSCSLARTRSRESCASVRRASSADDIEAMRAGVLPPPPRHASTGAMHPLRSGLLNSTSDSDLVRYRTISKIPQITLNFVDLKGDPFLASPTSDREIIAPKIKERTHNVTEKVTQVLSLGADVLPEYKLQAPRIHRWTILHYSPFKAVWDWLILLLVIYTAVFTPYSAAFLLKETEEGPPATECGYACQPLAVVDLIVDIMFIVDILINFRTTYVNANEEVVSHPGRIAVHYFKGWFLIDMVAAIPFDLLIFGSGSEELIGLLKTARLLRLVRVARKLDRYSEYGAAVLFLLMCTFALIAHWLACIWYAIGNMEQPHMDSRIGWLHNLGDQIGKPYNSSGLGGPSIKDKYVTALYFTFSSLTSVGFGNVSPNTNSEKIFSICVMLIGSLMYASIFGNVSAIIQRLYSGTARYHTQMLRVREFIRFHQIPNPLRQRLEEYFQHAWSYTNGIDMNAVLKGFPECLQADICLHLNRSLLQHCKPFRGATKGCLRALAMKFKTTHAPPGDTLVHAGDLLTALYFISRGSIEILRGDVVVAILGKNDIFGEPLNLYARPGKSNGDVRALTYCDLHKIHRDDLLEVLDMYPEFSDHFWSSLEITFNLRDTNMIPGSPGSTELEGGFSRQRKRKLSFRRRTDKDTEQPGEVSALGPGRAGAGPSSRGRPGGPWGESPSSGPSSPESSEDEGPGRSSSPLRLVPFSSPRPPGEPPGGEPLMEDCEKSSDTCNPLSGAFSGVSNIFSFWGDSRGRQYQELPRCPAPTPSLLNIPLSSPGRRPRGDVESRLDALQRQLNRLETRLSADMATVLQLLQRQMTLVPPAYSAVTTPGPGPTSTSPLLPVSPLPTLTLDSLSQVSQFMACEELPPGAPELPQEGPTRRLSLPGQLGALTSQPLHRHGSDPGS

SMILES	hERG current change (%, negative = inhibition) at 1uM
Cc1ccc(NC(=O)C(=O)NCc2ccccn2)cc1	19.1%
O=C(NC1CC1)C1=C[C@H](c2c[nH]c3ccccc23)C[C@H](OCCCCO)O1	8.24%
CSCCOC(=O)C1=C(C)NC(=O)CC1c1ccccc1Cl (stereo not shown)	-8.29%
Cc1ccc(S(=O)(=O)c2cc3c(=O)n4ccccc4nc3n(C)c2=N)cc1	6.7%
CC(=O)Nc1sc(NC(=O)c2ccc(C)cc2)nc1-c1cccs1	12.2%
c1ccc(-c2nc3ccccn3c2NCc2ccc3c(c2)OCO3)cc1	-4.96%
Cc1cc(C(=O)CSc2nnnn2C)c(C)n1CCc1ccc(Cl)cc1	5.51%
Cc1cc(C)c2nc(NC(=O)c3ccc([N+](=O)[O-])o3)sc2c1	21.1%
Cc1c(/C=N/O)c2ccccn2c1C(=O)c1ccc(F)cc1	15.8%
CCC(=O)N/N=C/c1ccc(-c2ccc(Cl)cc2)o1	12.5%
Cc1cccc(CSCc2ccc(C(=O)O)o2)c1	11%
C/C(=N\NC(=O)CNC(=O)C1COc2ccccc2O1)c1ccco1 (stereo not shown)	-1.43%
CC(C)(COC(=O)Nc1ccccc1)COC(=O)Nc1ccccc1	0.646%
Cc1c(N=C2N=C(NC(=O)NC(C)(C)C)c3ccccc32)c(=O)n(-c2ccccc2)n1C	17.7%
COc1ccc(C2CC(=O)C(C=NCCCN3CCOCC3)=C(O)C2)cc1 (stereo not shown)	19.9%
CS(=O)(=O)N1CCC(C(=O)Nc2ccc(F)cc2)CC1	12.9%
Cc1cc(C)nc(N/N=C/c2cccc([N+](=O)[O-])c2)n1	9.55%
COc1cccc(C=Nc2ccc(N3CCOCC3)cc2)c1O	16.3%
c1csc(C(c2nnnn2C2CCCC2)N2CCCC3(CCCCC3)C2)c1 (stereo not shown)	7.12%
CCCCCCNS(=O)(=O)c1ccccc1Br	7.86%
N#Cc1ccc(-c2ccc(F)cc2)nc1Oc1ccc(Cl)c(Cl)c1	13.2%
COc1ccc(N(C)S(=O)(=O)c2cccc(C(=O)NC3CCCCCC3)c2)cc1	2.6%
O=C(Nc1ccccc1C(=O)O)c1ccc(CN2C(=O)c3ccccc3C2=O)cc1	12.7%
COc1cccc(-c2csc(N3CCN(C(=S)Nc4ccccc4C)CC3)n2)c1	4.05%
COC(=O)[C@@H](Cc1ccccc1)NC(=O)NCCc1c[nH]c2ccccc12	15.4%
